# Assay results published in PubChem BioAssay AID504832 (National Center for Advancing Translational Sciences (NCATS), 2011).
# The campaign covered roughly 310,000 compounds. About 18,000 (5.8%) were called active. Inconclusive means that the source gave no clear call. Such entries were picked first, then a sample of the others. The call rests on the fitted dose curve; in most records, active means well fitted inhibition curve with a large enough effect; inconclusive means small, poorly fitted or top-dose-only effect, or another doubt; inactive means no such curve, though single readings can be large or run the other way. Potencies of inconclusive entries are left out as doubtful fits.
# Assay: Primary qHTS for delayed death inhibitors of the malarial parasite plastid, 48 hour incubation
# Conditions: P. falciparum luciferase growth in erythrocytes; series mostly up to 28.7 µM; activity change, negative = inhibition: at the top concentration
# Procedure, shortened: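 First compound was added to culture medium, then infected red cells at 0.1% parasitemia and 2% hematocrit (final). After incubation at 37 C under 5% CO2, luciferase detection reagent was dispensed and light output recorded.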
# On the % scale 0 is the no-effect control and ±100 the full control effect; potency means the concentration at half of the fitted maximal effect; tags describe the fitted curve by direction and shape.
SMILES,Potency,"activity change, negative = inhibition"
COC(=O)c1ccc(CN2C(=O)NC(c3ccccc3)(c3ccccc3)C2=O)o1,"inconclusive [inhibitor, partial curve, poor fit]",–
c1ccc(COc2cccc(CNCc3ccccn3)c2)cc1,–,inactive: -13.8%
O=C(c1ccccc1)N(Cc1ccc(F)cc1)Cc1nc2ccccc2c(=O)[nH]1,"inconclusive [inhibitor, single point]",–
CCOc1ccccc1Oc1coc2cc(OC(=O)N(C)C)ccc2c1=O,–,inactive: 7.42%
O=C(CCCc1ccccc1)NCCS(=O)(=O)N1CCN(c2ccc(F)cc2)CC1,"inconclusive [inhibitor, single point]",–
COc1ccc2[nH]cc(S(=O)(=O)c3ccc(C)cc3)c2c1,–,inactive: 9.62%
OC(CCN1CCCCC1)(c1ccccc1)C1C[C@@H]2C=C[C@H]1C2 (some centres not stated),"inconclusive [inhibitor, single point]",–
Cc1cc(C)nc(NS(=O)(=O)c2ccc(N/C=C/C(=O)c3ccc(Cl)c(Cl)c3)cc2)n1,–,inactive: 4.97%
N#Cc1cc(Sc2ccccn2)c(Sc2ccccn2)cc1C#N,–,inactive: 9.25%
O=C(O)CCCC(=O)Nc1cccc(-c2nc3ccccc3[nH]2)c1,–,inactive: -4.33%
CCN(C(=O)CN1C(=O)NC2(CCCc3ccccc32)C1=O)c1ccc(F)cc1 (configuration not stated),"inconclusive [inhibitor, single point]",–
CCOC(=O)C1C(c2cccc(F)c2)NC(=S)NC1(O)C(F)(F)F (configuration not stated),–,inactive: 8.17%
COc1cccc(CNC(=O)c2cc(C3CC3)nc3c2cnn3C(C)C)c1,active: 4.65 µM,–
COc1ccc(C(CC(=O)Nc2nccs2)C(C)C)cc1 (configuration not stated),"inconclusive [inhibitor, partial curve, poor fit]",–
Cc1ccc(C)c(CN2CCC(CNC(=O)Nc3ccc(C)c(F)c3)CC2)c1,"inconclusive [inhibitor, partial curve]",–
COC(=O)c1cccc(NC(=O)Cc2nc(-c3ccccc3)sc2-c2ccc(C)cc2)c1,"inconclusive [inhibitor, single point]",–
CCCCN(CC)S(=O)(=O)c1ccc(C(=O)N=c2sc3cc(NC(C)=O)ccc3n2C)cc1,–,inactive: -15%
O=C(N/N=C/c1cnc(N2CCCCC2)s1)c1ccc(C(F)(F)F)cc1,active: 3.29 µM,–
Cc1ccc(S(=O)(=O)N2CCN(C(=O)N3CCCC3)CC2)cc1,–,inactive: -4.19%
CNC1CCCN(c2c(F)cc3c(=O)c(C(=O)O)cn(C4CC4)c3c2OC)C1 (configuration not stated),active: 4.78 µM,–
C=C1C(=CC=C2CCC[C@@]3(C)[C@@H]2CC[C@H]3[C@H](C)CCCC(C)C)C[C@@H](O)C[C@@H]1O,"inconclusive [inhibitor, single point]",–
Nc1ncc(Br)cc1S(=O)(=O)NCCC(=O)NCCc1ccccc1,–,inactive: 4.83%
O=C(CCN1C(=O)/C(=C/c2ccccc2Cl)SC1=S)NCCc1ccc(O)cc1,–,inactive: -19.3%
COc1ccc2oc(C)c(C(N)=O)c2c1,–,inactive: 8.88%

SMILES,Potency,"activity change, negative = inhibition"
COc1ccc(C(=O)NCC(c2ccco2)N2CCOCC2)cc1OC (configuration not stated),"inconclusive [inhibitor, single point]",–
COc1ccc(OCC(=O)N2CCN(S(=O)(=O)c3ccc(Cl)s3)CC2)cc1,–,inactive: -3.86%
COCCNC(=O)C1CCC(CNS(=O)(=O)c2ccccc2)CC1 (configuration not stated),–,inactive: 6.26%
COc1ccc(-c2nc(N/N=C(\C)c3ccc(O)cc3)c3ccccc3n2)cc1,"inconclusive [inhibitor, single point]",–
O=C1OC(N2CCN(C/C=C/c3ccccc3)CC2)c2ccccc21 (configuration not stated),"inconclusive [inhibitor, full curve, poor fit]",–
Cc1ccc(-c2cc(-c3n[nH]c(=S)n3C)c3ccccc3n2)cc1,"inconclusive [inhibitor, single point]",–
CCOC(=O)C1=C(Nc2cccc(Cl)c2)OCC1=O,–,inactive: -26.1%
O=C(Cc1ccc(Br)cc1)Nc1ccc(S(=O)(=O)N2CCCC2)cc1,"inconclusive [inhibitor, single point]",–
CCC(CC)C(=O)c1c[nH]c(C(=O)NCc2cccnc2)c1,–,inactive: -9.64%
COc1ccc(-n2cc(-c3ccc(Br)cc3)[nH]c2=S)cc1,–,inactive: 2.83%
CC(C)CN1CCC(=O)N([C@H](COc2ccccc2)Cc2ccccc2)CC1,"inconclusive [inhibitor, single point]",–
Cc1ccc(C(C)C)c(OCCNC(=S)Nc2cccc3ccccc23)c1,active: 9.28 µM,–
COc1ccc(C(CNC(=O)CNC(=O)c2ccccc2)N2CCCC2)cc1 (configuration not stated),"inconclusive [inhibitor, single point]",–
CCOC(=O)C1CCN(C(=O)C2CCN(S(=O)(=O)c3cccc4nsnc34)CC2)CC1,–,inactive: -23.5%
Cc1ccc(S(=O)(=O)NC(C)(C)CN2CCNCC2)cc1,"inconclusive [inhibitor, single point]",–
NC(=O)c1ccsc1NC(=O)COC(=O)Cc1c[nH]c2ccccc12,"inconclusive [inhibitor, partial curve, poor fit]",–
Cc1ccc(-c2cc(C(=O)N3CCN(c4ncccn4)CC3)c3ccccc3n2)cc1,"inconclusive [inhibitor, single point]",–
S=C(c1ccccc1)N(c1ccccc1)c1ccccc1,"inconclusive [inhibitor, partial curve, poor fit]",–
OCCNC(=S)NC1CCCCC1,–,inactive: 2.19%
CC(C)N(C(=O)N1CCN(c2ccnc3cc(Cl)ccc23)CC1)C(C)C,active: 8.28 µM,–
O=C(C1=C[C@@H](c2coc3ccccc3c2=O)C[C@@H](OCCCCO)O1)N1CCN(Cc2ccccc2)CC1,"inconclusive [inhibitor, partial curve, poor fit]",–
COC(=O)CN(C)C1CC(=O)N(c2ccc(Cl)cc2)C1=O (configuration not stated),–,inactive: 5.77%
O=C(COC(=O)c1ccccc1Nc1ccc(SC(F)F)cc1)NC1CC1,"inconclusive [inhibitor, single point]",–
CCC(C(=O)NC1CCCC1)N(C(=O)Cn1nnc(-c2ccc(C)o2)n1)c1cccc(O)c1 (configuration not stated),"inconclusive [inhibitor, partial curve]",–

SMILES,Potency,"activity change, negative = inhibition"
CC(=O)c1ccc(N2CCN(C(=S)Nc3ccccc3F)CC2)cc1,"inconclusive [inhibitor, single point]",–
Cc1cc(C)nc(SCC(=O)Nc2cc(C)on2)n1,–,inactive: 16.3%
COc1ccccc1NC(=O)Cc1noc(CSc2cccc[n+]2[O-])n1,"inconclusive [inhibitor, partial curve, poor fit]",–
COc1ccccc1N1CCN(C2=Nc3cccc4cccc2c34)CC1,–,inactive: 338%
O=C1c2oc3ccccc3c(=O)c2C(c2ccccn2)N1Cc1ccccc1 (configuration not stated),"inconclusive [inhibitor, partial curve, poor fit]",–
Cc1cccc(-n2c(O)c(C=Nc3ccccc3-c3n[nH]c(=S)[nH]c3=O)c3ccccc3c2=O)n1,"inconclusive [inhibitor, full curve]",–
COc1ccc(C2=CC(c3cc(OC)c(OC)c(OC)c3)NC(=S)N2)cc1 (configuration not stated),"inconclusive [inhibitor, single point]",–
COc1cccc(CN(C)C(=O)c2[nH]c(C)c(C(C)=O)c2C)c1OC,active: 11.7 µM,–
CCC(C)(C)NC(=O)c1cc(S(=O)(=O)N2CCCCC2)ccc1N1CCOCC1,"inconclusive [inhibitor, partial curve]",–
Cn1c(CC(=O)Nc2ccc(Cl)c(Cl)c2)n[nH]c1=S,–,inactive: -2.95%
CC(C)C(=O)NNC(=O)CSc1nc(C2CCCCC2)nc2ccccc12,–,inactive: 0.611%
CC(C)(c1ccccc1)c1ccc(OCCN2CCCC2)cc1,"inconclusive [inhibitor, single point]",–
CN1CCN(NC(=O)c2ccc(Br)c(S(=O)(=O)N3CCOCC3)c2)CC1,"inconclusive [inhibitor, single point]",–
CSc1nc(C)c(CCO)c(=O)[nH]1,"inconclusive [inhibitor, single point]",–
O=C(CSc1nc2ccccc2c(=O)n1Cc1ccco1)NCc1ccco1,"inconclusive [inhibitor, single point]",–
O=C(Nc1cccc2ccccc12)c1ccc(Cn2cc(Cl)cn2)cc1,"inconclusive [inhibitor, partial curve, poor fit]",–
COc1ccc(CCNC(=O)Cc2cc(OCc3ccccc3)c(OC)cc2[N+](=O)[O-])cc1OC,"inconclusive [inhibitor, single point]",–
Cc1ccc(C(=O)N/C(=C\c2ccccc2F)c2nc(=S)[nH][nH]2)cc1,–,inactive: 4.46%
O=C1CC(N2CCN(C(c3ccccc3)c3ccccc3)CC2)C(=O)N1Cc1ccc(N2CCCC2=O)cc1 (configuration not stated),active: 9.28 µM,–
C=CCn1cc(C(=O)OC)c(=O)c2cc(S(=O)(=O)N3CCCCCC3)ccc21,"inconclusive [inhibitor, single point]",–
COc1ccccc1NC(=O)NC1(C(=O)N2CCCCCC2)CCCCC1,"inconclusive [inhibitor, single point]",–
COc1ccc(CNC(=O)CCCn2ncn3c(cc4occc43)c2=O)cc1,"inconclusive [inhibitor, single point]",–
CCCCCCCN(C(=O)CCl)c1ccccc1C,"inconclusive [inhibitor, single point]",–
O=C(CCCCCn1c(=S)[nH]c2ccc(N3CCOCC3)cc2c1=O)NCc1ccc(Cl)cc1,active: 8.28 µM,–
